Screen size: about 230,000 compounds; about 3,600 (1.6%) were called active. Inconclusive results, whose numbers are uncertain, are shown with a selection of clear calls. Calls come from the whole dose curve; as a rule, active = well fitted inhibition curve with a large enough effect (not every such curve was filed as active); inconclusive = small, poorly fitted or top-dose-only effect, or another doubt; inactive = no such curve, though single readings can be large or run the other way. Potencies of inconclusive entries are doubtful fits and often do not repeat.
These molecules were tested against Lysine-specific demethylase 4E (Homo sapiens) (UniProt B2RXH2) (assay: qHTS Assay for Inhibitors of Human Jumonji Domain Containing 2E (JMJD2E)). Conditions: JMJD2E catalytic domain, FDH-coupled NADH fluorescence (FDH is formaldehyde dehydrogenase); series mostly up to 57.1 µM; activity change, negative = inhibition: at the top concentration.
Sequence of UniProt B2RXH2 (B2RXH2 whole entry, looked up, the tested form may be a part): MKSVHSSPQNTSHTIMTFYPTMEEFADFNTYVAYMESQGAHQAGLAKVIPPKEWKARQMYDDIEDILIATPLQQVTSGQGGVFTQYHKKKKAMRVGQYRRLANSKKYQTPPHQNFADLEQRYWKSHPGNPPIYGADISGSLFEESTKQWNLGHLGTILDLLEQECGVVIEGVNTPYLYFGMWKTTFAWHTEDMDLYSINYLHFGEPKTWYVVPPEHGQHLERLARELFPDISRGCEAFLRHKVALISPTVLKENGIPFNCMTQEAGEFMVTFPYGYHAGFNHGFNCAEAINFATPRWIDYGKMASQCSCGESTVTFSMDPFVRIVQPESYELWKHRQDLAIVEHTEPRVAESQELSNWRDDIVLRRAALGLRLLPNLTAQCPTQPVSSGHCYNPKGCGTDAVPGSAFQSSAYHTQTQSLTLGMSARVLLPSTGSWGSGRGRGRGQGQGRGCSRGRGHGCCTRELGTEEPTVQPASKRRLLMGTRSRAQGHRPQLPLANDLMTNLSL
Note: nearly all actives have a fitted effect of over 50% in size.
Potency is the fitted concentration of half-maximal effect; tags give direction and shape of the fitted curve.
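Throughout, for activity change, negative = inhibition: 0% = wells with enzyme and -100% = buffer wells without enzyme.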

| Structure (SMILES) | Potency | activity change, negative = inhibition |
| --- | --- | --- |
| Cc1ccccc1NC(=O)c1ccc(-c2ccc(Cl)cc2Cl)o1 | inconclusive: 35.5 µM [inhibitor, single point] |  |
| O=C1CN(C(=O)COC(=O)CCSc2ccccc2Cl)c2ccccc2N1 |  | inactive: -6.67% |
| O=c1cc(-c2cc3ccccc3oc2=O)c2ccc(O)cc2o1 | inconclusive: 31.6 µM [inhibitor, single point] |  |
| FC(F)(F)c1ccc(Cl)c(-n2c(-c3cc(C4CC4)[nH]n3)n[nH]c2=S)c1 |  | inactive: 0.689% |
| Cc1ccc(C2(c3noc(CN(C)Cc4cccnc4)n3)CCCC2)cc1 |  | inactive: -0.952% |
| COC(=O)[C@@H]1C[C@@]2(O)[C@H](O)[C@H](O)[C@H](O)C[C@H]2N1Cc1cc(OC)cc(OC)c1 | inconclusive: 39.8 µM [inhibitor, single point] |  |
| O=C(Nc1ccccc1N1CCCC1)c1cccc(Cl)c1Cl |  | inactive: -1.68% |
| O=C(N/N=C1/CCSC1)c1cc(Br)ccc1O | inconclusive: 28.2 µM [inhibitor, partial curve] |  |
| Cc1nn(-c2ccccc2)c(C)c1/C=N/NC(=O)c1cc(-c2ccc(Cl)s2)[nH]n1 | inconclusive: 39.8 µM [inhibitor, single point] |  |
| CCCC(=O)c1ccc(N2CCC(C)CC2)c(F)c1 |  | inactive: 2.66% |
| COCc1cc(C)nc(N2CCNCC2)c1C#N | inconclusive: 31.6 µM [inhibitor, partial curve] |  |
| Cc1ccccc1C(=O)Nc1ccccc1-c1nnn(CC(=O)Nc2ccc3c(c2)OCCO3)n1 | inconclusive: 35.5 µM [inhibitor, single point] |  |
| O=C(c1cc2ccccc2oc1=O)N1CCSC1c1ccco1 (configuration not stated) | inconclusive: 31.6 µM [inhibitor, single point] |  |
| O=C(O)CC12CC3CC(C1)CC(n1ncc(NCc4ccccc4Cl)c(Cl)c1=O)(C3)C2 |  | inactive: 1.8% |
| COCC(C)n1c(SCC(=O)NC(=O)Nc2ccc3c(c2)OCCO3)nc2ccccc2c1=O (configuration not stated) |  | inactive: 0.988% |
| Cc1cccc(Oc2nc3ccccn3c(=O)c2/C=C(\C#N)C(=O)NC2CCS(=O)(=O)C2)c1 (configuration not stated) | inconclusive: 3.55 µM [inhibitor, full curve] |  |
| O=C(c1ccc(F)cc1)N1CCN=C1c1ccccc1 |  | inactive: 12.3% |
| CN(C(=O)CSc1nnnn1-c1ccc(O)cc1)C1CCS(=O)(=O)C1 (configuration not stated) |  | inactive: 10.1% |
| C=CCn1c(=O)/c(=C/c2ccc(Cl)cc2)s/c1=C(/C#N)c1nnc2n1CCCCC2 |  | inactive: 2.96% |
| CCC(SC1=NCCS1)C(=O)Nc1nnc(-c2ccccc2OC)s1 (configuration not stated) | inconclusive: 39.8 µM [inhibitor, single point] |  |
| CCOC(=O)C1=C(C)NC(C)=C(C(=O)OCC)C1c1cccc(C)n1 | inconclusive: 39.8 µM [inhibitor, single point] |  |
| Cc1ccc(S(=O)(=O)NCCC(=O)Oc2ccc3ccc(=O)oc3c2)cc1 | inconclusive: 35.5 µM [inhibitor, partial curve] |  |
| COc1ccccc1C(=O)N(CCC1CCCN1C)c1nc2ccccc2s1 (configuration not stated) | inconclusive: 0.282 µM [inhibitor, partial curve] |  |
| CCOCC(=O)Nc1ccccc1C(=O)OCC | inconclusive: 39.8 µM [inhibitor, single point] |  |
| Cc1cc(=O)oc2cc(OC(=O)c3cncc(Br)c3)ccc12 | inconclusive: 7.08 µM [inhibitor, partial curve] |  |
| CCOC(=O)c1[nH]c2cc3c(cc2c1NC(=O)CN1CC(C)CC(C)C1)OCO3 (configuration not stated) | inconclusive: 31.6 µM [inhibitor, partial curve] |  |

| Structure (SMILES) | Potency | activity change, negative = inhibition |
| --- | --- | --- |
| CC(C)C(OC(=O)/C=C/c1ccc2c(c1)OCO2)C(=O)NC(N)=O (configuration not stated) | inconclusive: 25.1 µM [inhibitor, partial curve] |  |
| O=C(CCc1ccc(S(=O)(=O)N2CCOCC2)cc1)N/N=C/c1ccc(F)cc1F |  | inactive: 1.19% |
| CCOC(=O)c1cnc2c(c(C)nn2CC)c1NC1CC1 |  | inactive: 5.26% |
| Cc1ccnc(N2CCCC(C(=O)NCc3cccs3)C2)n1 (configuration not stated) |  | inactive: 6.73% |
| O=c1c2sc3nc(N4CCOCC4)c4c(c3c2ncn1CCc1ccccc1)CCCC4 | inconclusive: 3.98 µM [inhibitor, single point] |  |
| CCOC(=O)CC(=O)CSc1nc(-c2ccc3c(c2)OCO3)cc(C(F)(F)F)c1C#N | inconclusive: 12.6 µM [inhibitor, single point] |  |
| COc1cc(C)nc(NC(=S)N(C)C(=O)c2ccccc2)n1 |  | inactive: -4.29% |
| CN(C)c1cc(NC(=O)CNC(C)(C)C)c2ccccc2n1 | inconclusive: 28.2 µM [inhibitor, partial curve] |  |
| CC(=O)Nc1ccc(/C=C(\C#N)C(=O)NCc2ccccc2)cc1 |  | inactive: -5.62% |
| CC(C)OC(=O)/C(=C/c1ccc2c(c1)c1ccccc1n2C)NC(=O)c1ccccc1 | inconclusive: 22.4 µM [inhibitor, partial curve] |  |
| CC1CC(C)CN(C(=O)COC(=O)c2ccc[nH]c2=O)C1 (configuration not stated) |  | inactive: 4.05% |
| C=CCNC(=O)NC(=O)COC(=O)/C=C/c1cccc([N+](=O)[O-])c1 |  | inactive: -5.44% |
| NC(=O)c1cc2ccc(O)cc2oc1=Nc1ccccc1 | inconclusive: 31.6 µM [inhibitor, partial curve] |  |
| COCCNCCCCOc1ccc(Br)cc1C | inconclusive: 22.4 µM [inhibitor, single point] |  |
| CC1(C)CC(=O)c2cn3c(nc2C1)nc1ccccc13 | inconclusive: 31.6 µM [inhibitor, single point] |  |
| O=C(NCc1ccccn1)C(=O)C1C(=O)Nc2ccccc21 (configuration not stated) |  | inactive: -0.954% |
| O=C(O)c1ccc(Cl)c(S(=O)(=O)N2CCCC2)c1 |  | inactive: -2.08% |
| CC1(C)CC(=O)C2=C(C1)OC(N)=C(C#N)C2CCc1ccccc1 (configuration not stated) |  | inactive: -0.741% |
| CCCC/C=C/C(NC(=O)Oc1cccc(C(F)(F)F)c1)c1ccccc1 (configuration not stated) |  | inactive: 4.44% |
| Cc1cc(N2CCCC2)nc2c(C)cccc12 | inconclusive: 28.2 µM [inhibitor, single point] |  |
| O=C(CN1C(=O)COc2ccccc21)N(Cc1ccccc1)Cc1ccccn1 |  | inactive: -7.25% |
| O=S(=O)(c1ccc(F)cc1)N1CCN(CC(O)COCc2cccs2)CC1 (configuration not stated) |  | inactive: -21.4% |
| COC(=O)c1ccccc1NC(=O)c1cnn2c(C(F)F)cc(C3CC3)nc12 | inconclusive: 5.62 µM [inhibitor, partial curve] |  |
| O=C(CN1C2=NCCN2c2ccccc21)c1ccc(Br)cc1 |  | inactive: 4.61% |
| NC(=O)N/N=C/c1coc2ccc3ccccc3c2c1=O |  | inactive: -24% |
| O=C(Nc1nc2ccccc2n1Cc1ccc(Cl)cc1)c1ccco1 | inconclusive: 31.6 µM [inhibitor, partial curve] |  |

| Structure (SMILES) | Potency | activity change, negative = inhibition |
| --- | --- | --- |
| COc1ccc(CNc2nc3nc(C)c(Cl)c(C)n3n2)cc1 | inconclusive: 39.8 µM [inhibitor, single point] |  |
| O=c1[nH]c(CSc2nnnn2-c2ccccc2)nc2ccccc12 | inconclusive: 39.8 µM [inhibitor, single point] |  |
| O=C(N/N=C/C1CC2C=CC1C2)c1ccccc1O (configuration not stated) |  | inactive: -20.9% |
| CCCn1nc2cc(C(=O)NCc3ccc(C)cc3)ccc2c1OC | inconclusive: 31.6 µM [inhibitor, partial curve] |  |
| CC(C)n1c(=S)[nH]c2scc(-c3cccs3)c2c1=O |  | inactive: -19.9% |
| CC1CCCN(CCCOc2ccc(Br)cc2Cl)C1 (configuration not stated) | inconclusive: 25.1 µM [inhibitor, single point] |  |
| CCc1ccc(C(=O)c2cnc3ccc(OC)cc3c2N2CCN(CC)CC2)cc1 |  | inactive: 2.92% |
| Cn1c(N=Nc2ccccc2)nc2ccccc21 |  | inactive: 8.14% |
| O=C(NCCc1ccccn1)c1cc(-c2cccc3ccccc23)nc2ccccc12 | inconclusive: 31.6 µM [inhibitor, single point] |  |
| Nc1cccc2nsnc12 | inconclusive: 15.8 µM [inhibitor, single point] |  |
| CCSc1ccccc1C(=O)NCc1ccco1 |  | inactive: -0.708% |
| O=C(COC(=O)c1ccc(Cl)cc1O)NC(=O)C1CCCCC1 | inconclusive: 22.4 µM [inhibitor, partial curve] |  |
| CCOC(=O)Cn1nnnc1CN(Cc1ccccc1)Cc1cc2cc(CC)ccc2[nH]c1=O | inconclusive: 39.8 µM [inhibitor, single point] |  |
| O=C(c1ccc2c3c(cccc13)CC2)C1CCCN(C(=O)c2ccc[n+]([O-])c2)C1 (configuration not stated) | inconclusive: 35.5 µM [inhibitor, partial curve] |  |
| O=C(c1ccccc1)N1CCN(c2ccccc2F)CC1 | inconclusive: 39.8 µM [inhibitor, single point] |  |
| COc1ccc(C(=O)N(c2ccc(OC)cc2)S(=O)(=O)c2cccs2)cc1 |  | inactive: -10.8% |
| COc1cc(OC)cc(-c2ncc3ccccn23)c1 | inconclusive: 7.94 µM [inhibitor, partial curve] |  |
| O=C(CN(C(=O)c1ccc(Cl)cc1)C1CCCCC1)Nc1ccc(Cl)c([N+](=O)[O-])c1 |  | inactive: 2.96% |
| CCOC(=O)C1(Cc2ccccc2)CCN(Cc2ccc3cc(NC(C)=O)ccc3n2)CC1 | inconclusive: 35.5 µM [inhibitor, partial curve] |  |
| Cc1ccc(N2C(=O)C(CC(=O)Nc3cccc(F)c3)N(CCc3ccncc3)C2=O)cc1 (configuration not stated) | inconclusive: 3.55 µM [inhibitor, single point] |  |
| Oc1c(C=NCc2ccncc2)sc2ccccc12 | inconclusive: 31.6 µM [inhibitor, partial curve] |  |
| COCCn1c(=O)[nH]c2cc(C(=O)NCCN3CCN(c4ccccc4)CC3)ccc2c1=O | inconclusive: 28.2 µM [inhibitor, single point] |  |
| OCCNc1nc(Nc2ccc(O)cc2)nc2ccccc12 |  | inactive: 0.705% |
| CCC(C)(NC(=O)c1ccccc1)C(=O)O (configuration not stated) |  | inactive: -5.88% |
| OCCCN=C1CCCc2c1[nH]c1ccc(Cl)cc21 | inconclusive: 28.2 µM [inhibitor, partial curve] |  |

From PubChem BioAssay AID2147 (National Center for Advancing Translational Sciences (NCATS), 2009)
